Assay results: patent US11278595B2, “Peptides comprising non-natural amino acids and methods of making and using the same” (Longevity Biotech, Inc., priority 2013, dated 2022)
Like-named read-outs stand apart in the source and are kept apart here. Not every detail of the peptide structures is certain; ends, links or a residue may be inferred. Numbered stars: 1 amine (or outer) side, 2 acyl side, 3 side chain; on linkers, the order of the positions; unused ones are H or OH. Square brackets hold non-standard residues; d marks the D form. Peptide text beside a SMILES is read from it. ξ: configuration not given here. ξ(4-Aminopyrrolidine-3-CO) = O=C(C1CNCC1N[*:1])[*:2]; β3hY = N[C@H](CC(=O)O)Cc1ccc(O)cc1; β3hR = N=C(N)NCCC[C@H](N)CC(=O)O; β3hT = C[C@@H](O)[C@H](N)CC(=O)O; β3hN = NC(=O)C[C@H](N)CC(=O)O; X3 = O=C(C1CCCC1N[*:1])[*:2]; β3hL = CC(C)C[C@H](N)CC(=O)O; β3hK = NCCCC[C@H](N)CC(=O)O; β3hV = CC(C)[C@H](N)CC(=O)O; β3hS = N[C@@H](CO)CC(=O)O; βAla = NCCC(=O)O

Key:
VIPR1 (vpac1) = molecular target: T1, VIPR1 (vpac1) (Homo sapiens, UniProt P32241); assay: cell-based cAMP assay (DiscoveRx HitHunter cAMP XS+, cAMP Hunter cell lines), agonist mode; conditions: read-out: EC50 vpac1 (Molar)
T1 sequence (P32241 31-457): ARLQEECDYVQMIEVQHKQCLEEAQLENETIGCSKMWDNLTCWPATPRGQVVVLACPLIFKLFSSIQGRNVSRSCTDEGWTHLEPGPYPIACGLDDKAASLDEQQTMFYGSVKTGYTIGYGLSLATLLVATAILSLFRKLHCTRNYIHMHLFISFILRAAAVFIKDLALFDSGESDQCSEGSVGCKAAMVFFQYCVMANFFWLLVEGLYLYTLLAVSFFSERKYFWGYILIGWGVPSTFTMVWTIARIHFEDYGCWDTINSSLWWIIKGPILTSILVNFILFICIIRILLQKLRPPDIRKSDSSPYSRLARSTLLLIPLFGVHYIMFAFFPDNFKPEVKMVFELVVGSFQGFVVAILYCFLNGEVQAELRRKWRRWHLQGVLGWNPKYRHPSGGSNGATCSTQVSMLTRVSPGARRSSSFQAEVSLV

VIPR2 (vpac2) = molecular target: T2, VIPR2 (vpac2) (Homo sapiens, UniProt P41587); assay: as above; conditions: read-out: EC50 vpac2 (Molar)
T2 sequence (P41587 24-438): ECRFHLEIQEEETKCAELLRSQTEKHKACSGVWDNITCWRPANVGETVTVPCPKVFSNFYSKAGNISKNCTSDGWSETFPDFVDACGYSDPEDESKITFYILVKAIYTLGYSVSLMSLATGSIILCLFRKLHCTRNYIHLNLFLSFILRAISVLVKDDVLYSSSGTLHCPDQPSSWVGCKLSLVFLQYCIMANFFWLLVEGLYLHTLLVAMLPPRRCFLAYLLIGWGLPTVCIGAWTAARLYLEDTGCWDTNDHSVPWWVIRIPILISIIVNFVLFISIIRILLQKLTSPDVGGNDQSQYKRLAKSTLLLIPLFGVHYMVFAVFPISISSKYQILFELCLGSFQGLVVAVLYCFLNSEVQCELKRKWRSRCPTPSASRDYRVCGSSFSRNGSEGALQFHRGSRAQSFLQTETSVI

[1] = Table 3, VPAC1 selective analogs
[2] = Table 2, VPAC2 selective analogs

Structure (SMILES) | EC50 (VIPR1 (vpac1); [1]) [nM] | EC50 (VIPR2 (vpac2); [1]) [nM] | EC50 (VIPR1 (vpac1); [2]) [nM] | EC50 (VIPR2 (vpac2); [2]) [nM]
CC[C@H](C)[C@H](NC(=O)[C@H](C)NC(=O)[C@H](CC(N)=O)NC(=O)C[C@H](CC(C)C)NC(=O)[C@H](Cc1ccc(O)cc1)NC(=O)[C@H](CCCCN)NC(=O)[C@H](CCCCN)NC(=O)C[C@@H](NC(=O)[C@H](C)NC(=O)[C@H](CC(C)C)NC(=O)[C@H](CCC(N)=O)NC(=O)C[C@H](CCCCN)NC(=O)[C@H](CCCNC(=N)N)NC(=O)[C@H](CC(C)C)NC(=O)[C@H](CCCNC(=N)N)NC(=O)C[C@@H](NC(=O)[C@H](Cc1ccc(O)cc1)NC(=O)C[C@H](CC(N)=O)NC(=O)[C@H](CC(=O)O)NC(=O)[C@@H](NC(=O)[C@H](Cc1ccccc1)NC(=O)C[C@@H](NC(=O)[C@H](C)NC(=O)[C@H](CC(=O)O)NC(=O)[C@@H](Cc1ccccc1)NC(=O)[C@@H](N)Cc1c[nH]cn1)C(C)C)[C@@H](C)O)[C@@H](C)O)C(C)C)C(=O)N[C@H](CC(=O)N[C@@H](CC(N)=O)C(N)=O)CC(C)C [LBT-V129, HfDAvFTDnYtRLRkQLAvKKYlNAIlN] (H-H[dF]DA[β3hV]FTD[β3hN]Y[β3hT]RLR[β3hK]QLA[β3hV]KKY[β3hL]NAI[β3hL]N-NH2; N-terminus assumed) | > 1000 | 989 |  | 
CC(=O)N[C@@H](Cc1c[nH]cn1)C(=O)N[C@@H](CO)C(=O)N[C@@H](CC(=O)O)C(=O)N[C@@H](C)C(=O)N[C@H](C(=O)N[C@@H](Cc1ccccc1)C(=O)N[C@H](C(=O)N[C@@H](CCC(=O)O)C(=O)N[C@@H](CC(N)=O)C(=O)N[C@@H](Cc1ccc(O)cc1)C(=O)N[C@H](C(=O)N[C@@H](CCCCN)C(=O)N[C@@H](CC(C)C)C(=O)N[C@@H](CCCNC(=N)N)C(=O)N[C@@H](CCCCN)C(=O)N[C@@H](CCC(N)=O)C(=O)N[C@@H](CC(C)C)C(=O)N[C@@H](C)C(=O)N[C@@H](C)C(=O)NC1CNCC1C(=O)N[C@@H](CCCCN)C(=O)N[C@@H](Cc1ccc(O)cc1)C(=O)NC1CCCC1C(=O)N[C@@H](CC(N)=O)C(=O)N[C@@H](CC(=O)O)C(=O)N[C@@H](CC(C)C)C(=O)N[C@@H](CCCCN)CC(=O)N[C@@H](CCCCN)C(=O)NCC(=O)NCCC(=O)N[C@H](C(N)=O)[C@@H](C)O)[C@@H](C)O)[C@@H](C)O)C(C)C (stereo partly drawn) [LBT-V202, Ac-HSDAVFTENYTKLRKQLAAzKYxNDLkKGgT] (Ac-HSDAVFTENYTKLRKQLAA[ξ(4-Aminopyrrolidine-3-CO)]KY[X3]NDL[β3hK]KG[βAla]T-NH2) |  |  | > 1000 | 0.963
CC(=O)N[C@@H](Cc1c[nH]cn1)C(=O)NC1CCCC1C(=O)N[C@@H](CC(=O)O)C(=O)N[C@@H](C)C(=O)NC1CCCC1C(=O)N[C@@H](Cc1ccccc1)C(=O)N[C@H](C(=O)N[C@@H](CCC(=O)O)C(=O)NC1CCCC1C(=O)N[C@H](CC(=O)N[C@H](C(=O)N[C@@H](CCCCN)C(=O)N[C@@H](CC(C)C)C(=O)N[C@@H](CCCNC(=N)N)C(=O)N[C@@H](CCCCN)CC(=O)N[C@@H](CCC(N)=O)C(=O)N[C@@H](CC(C)C)C(=O)N[C@@H](C)C(=O)N[C@@H](C)C(=O)NC1CNCC1C(=O)N[C@@H](CCCCN)C(=O)N[C@@H](Cc1ccc(O)cc1)C(=O)NC1CCCC1C(=O)N[C@@H](CC(N)=O)C(=O)N[C@@H](CC(=O)O)C(=O)N[C@@H](CC(C)C)C(=O)N[C@@H](CCCCN)CC(=O)N[C@@H](CCCCN)C(=O)NCC(=O)NCCC(=O)N[C@H](C(N)=O)[C@@H](C)O)[C@@H](C)O)Cc1ccc(O)cc1)[C@@H](C)O (stereo partly drawn) [LBT-V219, Ac-HxDAxFTExyTKLRkQLAAzKYxNDLkKGgT] (Ac-H[X3]DA[X3]FTE[X3][β3hY]TKLR[β3hK]QLAA[ξ(4-Aminopyrrolidine-3-CO)]KY[X3]NDL[β3hK]KG[βAla]T-NH2) |  |  | 461 | > 1000
CC(=O)N[C@@H](Cc1c[nH]cn1)C(=O)NC1CCCC1C(=O)N[C@@H](CC(=O)O)C(=O)N[C@@H](C)C(=O)NC1CCCC1C(=O)N[C@@H](Cc1ccccc1)C(=O)N[C@H](C(=O)N[C@@H](CCC(=O)O)C(=O)NC1CCCC1C(=O)N[C@@H](Cc1ccc(O)cc1)C(=O)N[C@H](C(=O)N[C@@H](CCCCN)C(=O)N[C@@H](CC(C)C)C(=O)N[C@@H](CCCNC(=N)N)C(=O)N[C@@H](CCCCN)C(=O)N[C@@H](CCC(N)=O)C(=O)N[C@@H](CC(C)C)C(=O)N[C@@H](C)C(=O)N[C@@H](C)C(=O)NC1CNCC1C(=O)N[C@@H](CCCCN)C(=O)N[C@@H](Cc1ccc(O)cc1)C(=O)NC1CCCC1C(=O)N[C@@H](CC(N)=O)C(=O)N[C@@H](CC(=O)O)C(=O)N[C@@H](CC(C)C)C(=O)N[C@@H](CCCCN)CC(=O)N[C@@H](CCCCN)C(=O)NCC(=O)NCCC(=O)N[C@H](C(N)=O)[C@@H](C)O)[C@@H](C)O)[C@@H](C)O (stereo partly drawn) [LBT-V209, Ac-HxDAxFTExYTKLRKQLAAzKYxNDLkKGgT] (Ac-H[X3]DA[X3]FTE[X3]YTKLRKQLAA[ξ(4-Aminopyrrolidine-3-CO)]KY[X3]NDL[β3hK]KG[βAla]T-NH2) |  |  | > 1000 | 5.58
CC[C@H](C)[C@H](NC(=O)[C@H](C)NC(=O)[C@H](CC(N)=O)NC(=O)C[C@H](CC(C)C)NC(=O)[C@H](Cc1ccc(O)cc1)NC(=O)[C@H](CCCCN)NC(=O)[C@H](CCCCN)NC(=O)C[C@@H](NC(=O)[C@H](C)NC(=O)[C@H](CC(C)C)NC(=O)[C@H](CCC(N)=O)NC(=O)C[C@H](CCCCN)NC(=O)[C@H](CCCNC(=N)N)NC(=O)[C@H](CC(C)C)NC(=O)[C@H](CCCNC(=N)N)NC(=O)C[C@@H](NC(=O)[C@H](Cc1ccc(O)cc1)NC(=O)[C@H](CC(N)=O)NC(=O)[C@H](CC(=O)O)NC(=O)[C@@H](NC(=O)[C@H](Cc1ccccc1)NC(=O)C[C@@H](NC(=O)[C@H](C)NC(=O)[C@H](CC(=O)O)NC(=O)C[C@H](CO)NC(=O)[C@@H](N)Cc1c[nH]cn1)C(C)C)[C@@H](C)O)[C@@H](C)O)C(C)C)C(=O)N[C@H](CC(=O)N[C@@H](CC(N)=O)C(N)=O)CC(C)C [LBT-V105, HsDAvFTDNYtRLRkQLAvKKYlNAIlN] (H-H[β3hS]DA[β3hV]FTDNY[β3hT]RLR[β3hK]QLA[β3hV]KKY[β3hL]NAI[β3hL]N-NH2; N-terminus assumed) | 64.4 | 716 |  | 
CC(=O)N[C@@H](Cc1c[nH]cn1)C(=O)NC1CCCC1C(=O)N[C@@H](CC(=O)O)C(=O)N[C@@H](C)C(=O)N[C@H](CC(=O)N[C@@H](Cc1ccccc1)C(=O)N[C@H](C(=O)N[C@@H](CCC(=O)O)C(=O)N[C@@H](CC(N)=O)C(=O)N[C@@H](Cc1ccc(O)cc1)C(=O)N[C@H](C(=O)N[C@@H](CCCCN)C(=O)N[C@H](CC(=O)N[C@@H](CCCNC(=N)N)C(=O)N[C@@H](CCCCN)C(=O)N[C@@H](CCC(N)=O)C(=O)N[C@@H](CC(C)C)C(=O)N[C@@H](C)C(=O)N[C@@H](C)C(=O)NC1CNCC1C(=O)N[C@@H](CCCCN)C(=O)N[C@@H](Cc1ccc(O)cc1)C(=O)NC1CCCC1C(=O)N[C@@H](CC(N)=O)C(=O)N[C@@H](CC(=O)O)C(=O)N[C@@H](CC(C)C)C(=O)N[C@@H](CCCCN)CC(=O)N[C@@H](CCCCN)C(=O)NCC(=O)NCCC(=O)N[C@H](C(N)=O)[C@@H](C)O)CC(C)C)[C@@H](C)O)[C@@H](C)O)C(C)C (stereo partly drawn) [LBT-V215, Ac-HxDAvFTENYTKlRKQLAAzKYxNDLkKGgT] (Ac-H[X3]DA[β3hV]FTENYTK[β3hL]RKQLAA[ξ(4-Aminopyrrolidine-3-CO)]KY[X3]NDL[β3hK]KG[βAla]T-NH2) |  |  | 1420 | 1.33
CC(=O)N[C@@H](Cc1c[nH]cn1)C(=O)NC1CCCC1C(=O)N[C@@H](CC(=O)O)C(=O)N[C@@H](C)C(=O)N[C@H](CC(=O)N[C@@H](Cc1ccccc1)C(=O)N[C@H](C(=O)N[C@@H](CCC(=O)O)C(=O)N[C@@H](CC(N)=O)C(=O)N[C@@H](Cc1ccc(O)cc1)C(=O)N[C@H](C(=O)N[C@@H](CCCCN)C(=O)N[C@@H](CC(C)C)C(=O)N[C@@H](CCCNC(=N)N)CC(=O)N[C@@H](CCCCN)C(=O)N[C@@H](CCC(N)=O)C(=O)N[C@@H](CC(C)C)C(=O)N[C@@H](C)C(=O)N[C@@H](C)C(=O)NC1CNCC1C(=O)N[C@@H](CCCCN)C(=O)N[C@@H](Cc1ccc(O)cc1)C(=O)NC1CCCC1C(=O)N[C@@H](CC(N)=O)C(=O)N[C@@H](CC(=O)O)C(=O)N[C@@H](CC(C)C)C(=O)N[C@@H](CCCCN)CC(=O)N[C@@H](CCCCN)C(=O)NCC(=O)NCCC(=O)N[C@H](C(N)=O)[C@@H](C)O)[C@@H](C)O)[C@@H](C)O)C(C)C (stereo partly drawn) [LBT-V214, Ac-HxDAvFTENYTKLrKQLAAzKYxNDLkKGgT] (Ac-H[X3]DA[β3hV]FTENYTKL[β3hR]KQLAA[ξ(4-Aminopyrrolidine-3-CO)]KY[X3]NDL[β3hK]KG[βAla]T-NH2) |  |  |  | 1.37
